# Test results reported in PMC12136788.
# The list shows a part of the results.
# B1: chr11:21042598:21042599:+_ENSMUSG00000020134_ENSMUST00000093290|mus_mus|motif|central (ssRNA)
# RNA: GGGAGUUCUACAGUCCGACGAUCGCUGUCAUGAGUAUAUUCAACCACCACCGUCUGGGCUCGAGAUAAAGUAUAUGAUAUGCGGUGCUGGUCCUUGUUGCUUAUUGCCUUGGCAGCCUGAGGAGUACAUGCAAUGUGCACGGUCAACAGAGGAUUGAGCAUCA
# B2: chr5:40767622:40767623:-_ENSG00000132356_ENST00000397128|hu_mus|hu_hu_hu_mus_False|38_38 (ssRNA)
# RNA: GGGAGUUCUACAGUCCGACGAUCAUCUUUUAUUGCGGCCCUCUUCAUGGGAUCCACCUGCAGCAUAUGUUUCAAAAGGCUGAUUACUGAAGGGUUUAAAUAUUGAGGGGUAUAAAAGAUCCCAUCACAUAUCUUCUUAAAAAGCAACAGAGGAUUGAGCAUCA
# B3: 38418874_38420842_594_3pUTR_ENSG00000171475_ENST00000323571|human|control|control (ssRNA)
# RNA: GGGAGUUCUACAGUCCGACGAUCUGUAUCAUCCUGAGGACGCCCGCUGGCGGCAGAUACUGGAGGCCUUGGGGCAGCAGCUCGAGAACUGGGGAUUUGCAGGGCUGGCUUACCAGCUAGGUUCUCUGAACCAUCCUUGGCUCCCAACAGAGGAUUGAGCAUCA
# B4: chr13:76104392:76104393:-_ENSG00000188243_ENST00000355801|hu_mus|FALSE|FALSE (ssRNA)
# RNA: GGGAGUUCUACAGUCCGACGAUCAUACUUGAGAGAUCUGCAGCUGUCAGAGCUCACAGCCAUGCCCAGUUUCCACUGAAAAUCUAUAAGCUGGCCCGUGACCUCCGACUUGGCAUCCAGCACGGGCUCCCUGAACCCAGACUCCAACAGAGGAUUGAGCAUCA
# B5: chr4:95690885:95690886:+_ENSMUSG00000028572_ENSMUST00000156910|mus_mus|mus_mus_mus_hu_False|18_78 (ssRNA)
# RNA: GGGAGUUCUACAGUCCGACGAUCUUUAGAAAAUGUUAAAUACCAUGCUAAAAUAUUGUAAUUUUAAUAUUUUAUUUUACCAGAAGUCACAGGCAAGCAGACACUACAAGAAUAUAUAAAUACAAACCUCAACAAUAUAACUGUCAACAGAGGAUUGAGCAUCA
# B6: chr7:138035701:138035702:+_ENSMUSG00000040268_ENSMUST00000120441|mus_mus|FALSE|FALSE (ssRNA)
# RNA: GGGAGUUCUACAGUCCGACGAUCUCCUGCAUUCAUAACAAAACAAAACUCUGCCUUUGGCCUUAACUUAGUUGCAUCGCUAACCUUUGAAAUGUAGGUAAGUUUAAUGGCUCCAACCCGUGACGAUCCUGAAGGCAGGUUCUGCAACAGAGGAUUGAGCAUCA
# B7: chr16:20552630:20552631:+_ENSMUSG00000003234_ENSMUST00000003319|mus_mus|FALSE|FALSE (ssRNA)
# RNA: GGGAGUUCUACAGUCCGACGAUCCAGUUUACUCUGCACUUGAGAGGCUCUGUUUGCAUUGUAUCGAAAACGGUCGAUGAAAACCUGGAUGUGUUGGCGAUACUGCUGCUGGGCCUCAUACUCGCGCUGCUGGUUGAGAAGGCGCAACAGAGGAUUGAGCAUCA
# B8: chr12:39687257:39687258:-_ENSG00000139116_ENST00000551264|hu_hu|motif|central (ssRNA)
# RNA: GGGAGUUCUACAGUCCGACGAUCAAAAUCCAGUCAACAACUUUUAAAAAUUCAUACAGGCACAACACAAGAUAGUCUCUCGGUACAAUCUACCUAUUUACAUAGCUUUUCCCACCACAGAUGAUAAUAGCUCUCAUCAUAGCUCAACAGAGGAUUGAGCAUCA
# B9: 122075633_122075753_1595_3pUTR_ENSMUSG00000038145_ENSMUST00000120173|mouse|control|control (ssRNA)
# RNA: GGGAGUUCUACAGUCCGACGAUCGCCCUCCUCGAAGAUCUGGUUGAGCACUGGGGCACUCUUGCGAGACGUCAGGCGAUUGGUGACCGAUGGCUUCCGGCGCAGCACCACCUGCGUGGACAGGGACACAGGCUUCUUGUCCUCCAACAGAGGAUUGAGCAUCA
# B10: chr3:10015032:10015033:+_ENSMUSG00000027533_ENSMUST00000029046|mus_mus|mus_mus_mus_hu_True|68_68 (ssRNA)
# RNA: GGGAGUUCUACAGUCCGACGAUCGUUUUUACCAUCACAAGUGAUGAUACAAUCUGGCUUGGCCAUUGCAGCCAUCUUUCGCAAAGCUAUUCCCACUCCUAGCUCCUUCAUGUAUUCAUCAAAGCCUUUGCUGUCCACCAGGCGCAACAGAGGAUUGAGCAUCA
# B11: chr3:160150142:160150143:+_ENSG00000113810_ENST00000344722|hu_mus|motif|central (ssRNA)
# RNA: GGGAGUUCUACAGUCCGACGAUCAAAACCAGCCAUAAAUUCAUUCAGCCUUUGUUUUCGAAGAUCUUCAUAUGCUUGUCGGAAAUUAUCUCUUUCAGAAGUAAUUUUGUCCAGUUCGGCUACUCUUUGCAAAUAUAAAUCUUCCAACAGAGGAUUGAGCAUCA
# B12: chr13:115030651:115030652:+_ENSG00000130177_ENST00000356221|hu_mus|FALSE|FALSE (ssRNA)
# RNA: GGGAGUUCUACAGUCCGACGAUCGAUGUACAUUUCAAUGCAGUGACCAAGCAUUGUAACAGAAAAUGUGUCGUCUCGCCUGAGACCAAGAGCUGUGUGGAAAUAGUCCACAGCGUUUUCAAAGUUGCCCAUCAGACUGUGGAUCAACAGAGGAUUGAGCAUCA
# B13: chr12:32871593:32871594:+_ENSG00000087470_ENST00000452533|hu_hu|motif|central (ssRNA)
# RNA: GGGAGUUCUACAGUCCGACGAUCCAAUACAUCCAUGGCAUCAGUACCCGCAUCCAUGAGAUCAAGUUUAGUGAUUACAGCGGGGGUUCUGCGACCAUCUGGAUCUACCUCUCUUGAAAUUUUAAGUGCCUCUGAUGUUGCCAUCAACAGAGGAUUGAGCAUCA
# B14: chr12:53618122:53618123:+_ENSMUSG00000035133_ENSMUST00000110725|mus_hu|FALSE|FALSE (ssRNA)
# RNA: GGGAGUUCUACAGUCCGACGAUCUCUUGUUCCCUCUAAGUUGAUGUAUUCUUCAUAAUCAGGAUGAUUUUUUAAUUUAUUACUAACAGUUUUCCAAGUUGCAUGAUAAUCUCUCACAGUCUGCACAAGUUUUUCAAACUUAUCCAACAGAGGAUUGAGCAUCA
# B15: chr4:140556289:140556290:+_ENSMUSG00000036622_ENSMUST00000037055|mus_mus|mus_mus_mus_hu_False|58_88 (ssRNA)
# RNA: GGGAGUUCUACAGUCCGACGAUCGAUGGAGCUCACCAGGCCCCCUUUGGCUGUGCAGAACCCUGUGCGGGUCACCACUGCUAGCACGUGCGGUCCCACAUAGGCCCGGGCCUGCAAGAUGAGGGUCCCGCAGAAGAGUGUGUGCAACAGAGGAUUGAGCAUCA
# B16: chr15:96521860:96521861:-_ENSMUSG00000022462_ENSMUST00000023099|mus_hu|motif|central (ssRNA)
# RNA: GGGAGUUCUACAGUCCGACGAUCGAAAUCUUUUGAUGCACACAACAAGUGAGUUACAGAACUCCGGAUUGGGAAAAUAACGGCUGGUACUGUCAGGGUCACAGCCAUUAACACAGCCAGACGGACAAUGAGAAGAAGAAUAUCCAACAGAGGAUUGAGCAUCA
# B17: chr15:58009597:58009598:+_ENSG00000255529_ENST00000299638|hu_hu|motif|central (ssRNA)
# RNA: GGGAGUUCUACAGUCCGACGAUCGUGUCAAGAGGGGACACACAGAGAUUUUGGAGUGCUGGCAAGACCUCCUCUGCAUCGGGUUUGUGAUUACACAGCUGUUGCUUUACCCAUUAAGCUCUGUUUUAAGUACUUAUUUGUAAGCAACAGAGGAUUGAGCAUCA
# B18: chr1:163112212:163112213:-_ENSG00000143248_ENST00000313961|hu_hu|hu_hu_hu_mus_False|88_98 (ssRNA)
# RNA: GGGAGUUCUACAGUCCGACGAUCUUUUAUUAUCAGUAAGCAUGAGUCACAUAGUACGCAAAGUAUUGGAUACAAUAAUCAGGAAACAAACACUAUUGGUCCAGAAUUUAAAACUUUAUGAGCGAAGUGCUGGCACAGGACUUACAACAGAGGAUUGAGCAUCA
# B19: chr7:44244176:44244177:+_ENSG00000106636_ENST00000223369|hu_mus|hu_hu_hu_mus_False|78_98 (ssRNA)
# RNA: GGGAGUUCUACAGUCCGACGAUCACUGUCGCUCCGGACGUAGACGUGGCAAAGAUAGUCUUGUUCUUUGACAGAAGCUCUGCUGCCUUUCCCCGAGCGUUCCACAAUCAGUUGACUUGUAAAGGUCAUGAAUUCCUGCACACUCAACAGAGGAUUGAGCAUCA
# B20: chr17:60770872:60770873:+_ENSG00000011028_ENST00000303375|hu_hu|hu_hu_hu_mus_True|38_58 (ssRNA)
# RNA: GGGAGUUCUACAGUCCGACGAUCUCUUUAAAAAAAAAAAAAAAAAGACAAACAAUAAUAGCACAUUUCGAGAAUCAUCAACUACAGUAGAGGGUCCAUGUCUUCGAUUUGUUCACAUCGUCCUGCACUGGGACACGGGGACUGCAACAGAGGAUUGAGCAUCA
# B21: 107048236_107050550_205_CDS_ENSMUSG00000018433_ENSMUST00000018577|mouse|control|control (ssRNA)
# RNA: GGGAGUUCUACAGUCCGACGAUCCUUGUAAAGGACGACGGUCCUGCCGCUGUCCGUCACUAGGAACUGGUCGGCUUUGUCAGUCUGCUCUACACCUAGGAAUCCCUCAGGCCCGGCGCCUAAGACUCCAGUAGACAACGUGAACAACAGAGGAUUGAGCAUCA
# B22: 44567007_44567127_516_3pUTR_ENSMUSG00000032096_ENSMUST00000034607|mouse|control|control (ssRNA)
# RNA: GGGAGUUCUACAGUCCGACGAUCCUGUAAAGGUUCUGAUCUGUGCCAGGUUAACAUUCUCCCGGUAUCCCAGGGCAACAAUUUCAUCAAAAGCAAAAAUCAAAUCAAAACAGUGCUCAGAUAUUUCAUUUUCCUCUAAGGCUCCAACAGAGGAUUGAGCAUCA
# Molecular target: T1, UNK ZnF1-3 (human, UniProt Q9C0B0 31-174)
# T1 sequence: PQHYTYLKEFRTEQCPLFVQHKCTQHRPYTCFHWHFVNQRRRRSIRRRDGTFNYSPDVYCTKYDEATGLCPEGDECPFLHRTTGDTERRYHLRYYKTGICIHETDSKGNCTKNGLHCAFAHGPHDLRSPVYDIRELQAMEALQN
# Assay: nsRBNS (natural sequence RNA bind-n-seq); RBNS binding buffer (assumed for nsRBNS): 25 mM Tris pH 7.5, 150 mM KCl, 3 mM MgCl2, 0.01% Triton X-100, 500 ug/ml BSA, 20 U/ml SUPERase-In, 4 C; UNK is unkempt and MSI1 is Musashi-1; names of the RNAs are library labels; protein concentration not given here; high values mean tight binding
row,Binder,binding signal [enrichment R]
1,B1,0.582
2,B2,1.38
3,B3,0.835
4,B4,0.293
5,B5,2.16
6,B6,0.632
7,B7,0.712
8,B8,1.94
9,B9,1.21
10,B10,0.806
11,B11,0.558
12,B12,0.955
13,B13,1.38
14,B14,0.754
15,B15,1.67
16,B16,0.983
17,B17,1.13
18,B18,1.51
19,B19,0.796
20,B20,2.45
21,B21,0.615
22,B22,1.17
